Some of these densities may be calculated back from excess volumes.
Assay: xn = mol fraction of the nth substance listed
Details: 101 kPa

c1ccc2c(c1)CCN2 + CC[n+]1ccn(C)c1.CS(=O)(=O)[O-]
mass density [kg/m3]
Details | 298.15 K | 303.15 K | 308.15 K | 313.15 K | 318.15 K | 323.15 K
x1 = 0.2 | 1215 | – | – | 1205 | 1201 | 1198
x1 = 0.3 | 1201 | 1198 | 1195 | 1191 | 1188 | 1185
x1 = 0.4 | 1188 | 1185 | 1182 | 1178 | 1175 | 1172
x1 = 0.5 | 1168 | – | 1161 | 1158 | – | 1151
x1 = 0.6 | 1149.7 | 1146.3 | 1143.1 | 1139.9 | 1136.5 | 1133
x1 = 0.7 | 1135.1 | 1131.6 | 1128 | 1124.4 | – | 1117.3

CC[n+]1ccn(C)c1.CS(=O)(=O)[O-] + c1ccsc1
mass density [kg/m3]
Details | x2 = 0.2 | x2 = 0.3 | x2 = 0.4 | x2 = 0.5 | x2 = 0.6 | x2 = 0.7 | x2 = 0.8
298.15 K | 1226 | 1218 | 1213 | 1210 | 1200 | 1192 | 1182
303.15 K | 1222 | 1215 | 1210 | 1206 | 1197 | – | 1180
308.15 K | 1219 | – | 1206 | 1202 | 1193 | 1184 | 1174
313.15 K | 1215 | 1208 | – | 1198 | 1189 | 1180 | 1172
318.15 K | – | 1204 | 1199 | 1194 | 1186 | 1176 | 1169
323.15 K | 1209 | 1201 | – | – | 1182 | 1173 | –

CC[n+]1ccn(C)c1.CS(=O)(=O)[O-] + O
mass density [kg/m3]
Details | 298.15 K | 303.15 K | 308.15 K | 313.15 K | 318.15 K | 323.15 K
x2 = 0.2 | 1231 | 1228 | – | – | – | 1215
x2 = 0.3 | 1224 | 1221 | 1218 | – | – | 1208
x2 = 0.4 | 1221 | 1218 | – | 1211 | 1208 | 1205
x2 = 0.5 | 1218 | 1215 | 1212 | 1209 | – | 1202
x2 = 0.6 | 1212 | – | 1205 | 1202 | 1198 | –
x2 = 0.7 | 1190 | 1187 | 1184 | 1180 | 1177 | 1173.5

c1cc[nH]c1 + CC[n+]1ccn(C)c1.CS(=O)(=O)[O-]
mass density [kg/m3]
Details | x1 = 0.2 | x1 = 0.3 | x1 = 0.4 | x1 = 0.5 | x1 = 0.6 | x1 = 0.7 | x1 = 0.8
298.15 K | – | 1196 | – | 1166 | 1135.1 | 1110.8 | –
303.15 K | 1210 | 1193 | 1178 | 1163 | 1131.5 | 1107.2 | 1075.1
308.15 K | – | 1190 | 1172 | 1159 | 1127.9 | 1103.6 | 1071.3
313.15 K | 1203 | 1186 | 1169 | 1156 | 1124.4 | 1099.9 | 1067.5
318.15 K | – | 1183 | 1165 | 1152 | 1120.8 | 1096.3 | 1063.9
323.15 K | – | 1179 | 1162 | – | 1117.3 | 1092.7 | 1060.1

CC[n+]1ccn(C)c1.CS(=O)(=O)[O-] + c1ccncc1
mass density [kg/m3]
Details | x2 = 0.2 | x2 = 0.3 | x2 = 0.4 | x2 = 0.5 | x2 = 0.6 | x2 = 0.7 | x2 = 0.8
298.15 K | – | 1204 | 1188 | 1171 | 1148 | 1124 | 1093.3
303.15 K | 1214 | – | – | – | 1147 | 1120 | –
308.15 K | 1210 | – | 1184 | 1164 | 1141 | – | 1084
313.15 K | 1207 | – | 1177 | 1160 | 1137 | 1112.2 | 1079.9
318.15 K | 1203 | – | 1174 | 1155 | – | 1103 | 1078
323.15 K | 1198 | – | 1170 | 1153 | 1130 | 1104.4 | 1071.7

c1ccc2ncccc2c1 + CC[n+]1ccn(C)c1.CS(=O)(=O)[O-]
mass density [kg/m3]
Details | 298.15 K | 303.15 K | 308.15 K | 313.15 K | 318.15 K | 323.15 K
x1 = 0.2 | 1220 | – | 1213 | 1210 | 1206 | 1203
x1 = 0.3 | 1205 | – | 1198 | 1194 | 1191 | 1187
x1 = 0.4 | 1189 | – | 1180 | – | 1175 | 1172
x1 = 0.5 | – | 1181 | 1177 | 1173 | 1170 | 1166
x1 = 0.6 | 1167 | 1164 | 1160 | – | 1153 | –
x1 = 0.7 | 1150 | – | 1143 | 1139 | 1135.6 | –

Source: a compilation of properties of binary mixtures (doi:10.1002/cjce.21638)
